Screen size: about 43,000 compounds; about 200 (0.47%) were called active. Not shown: some 12% with an inconclusive outcome. Calls follow the shape of the dose curve; as a rule, active = well fitted cell-killing curve with a large enough effect; inconclusive = small, poorly fitted or top-dose-only effect, or effect the other way; inactive = flat fitted curve, though single readings scatter. The list shows a part of the results.
% is scaled to controls: 0 for no effect and ±100 for the full control effect.

A short description of this test: Cell viability qHTS assay in S16 Pmp22-F2sN cells. Also: nearly all actives have a fitted effect of over 65% in size. The settings on record: S16 Pmp22-F2sN Schwann cells (luciferase reporters placed in the Pmp22 gene) viability, CellTiter-Glo, 24 h; series mostly up to 57.5 µM; activity change, negative = cytotoxicity: at the top concentration. The gist of the method: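 CellTiter-Glo counter-screen, qHTS, 1536-well. Cells: S16(c9) Pmp22-F2sN, 500-1,000/well in DMEM + 10% FBS. Cpd 23 nL pin transfer, 24 h, 37C/5% CO2. Read: luminescence, CCD imager.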
Consider `O=C(Cn1cc(C(=O)C2CCCCC2)c2ccccc21)Nc1ccccc1Cl`, for which the “activity change, negative = cytotoxicity” value is inactive: -22.5%. In the case of `Cc1c(-c2ccccc2)c(=O)oc2ccc(OC(=O)N3CCOCC3)cc12` it was inactive: -17.7%.

With `CCOc1ccc(C(=O)Nc2c(C(=O)Nc3ccccc3OC)oc3ccccc23)cc1OCC`, the “activity change, negative = cytotoxicity” value is inactive: -2.18%. Turning to `Cc1cc(C)cc(OCCSc2nc3ccc(NC(=O)c4cccs4)cc3s2)c1`, the “activity change, negative = cytotoxicity” value was inactive: -0.106%. In the case of `COc1ccc(C2c3[nH]c4ccccc4c3CCN2C(=O)CCC2CCCC2)cc1` (stereo not drawn) it was inactive: -4.34%; in that of `COc1ccc(CNC(=O)Cc2c(C)c3cc4c(C)coc4cc3oc2=O)cc1OC`, inactive: 8.17%; in that of `CC(Sc1nccn1C)C(=O)Nc1ccccc1C#N` (stereo not drawn), inactive: 4.14%. For `CCN(CC)c1ccc(NC(=O)c2cc(C)nc3c2c(C)nn3-c2ccc(C)cc2)c(C)c1` the value was inactive: 11%; for `CCOC(=O)c1ccc(NC(=O)c2cnn3c(=O)c4c(n(CC)c23)CCN(Cc2ccc(OC)cc2)C4)cc1`, inactive: 0.5%. In the case of `Cc1cn2c(=O)cc(COC(=O)c3ccc(NC(=O)c4ccc(F)cc4)cc3)nc2s1` it was inactive: -29.1%; in that of `CC1CCN(S(=O)(=O)N2CCC(C(=O)NCc3ccccc3Cl)CC2)CC1`, inactive: -5.22%. `COC(=O)c1ccc(Nc2ncnc3c2cnn3C)cc1`: the “activity change, negative = cytotoxicity” value is inactive: 0.956%. In the case of `COc1ccc(N2CCN(C(=O)CSc3nc(-c4ccc(C(C)C)cc4)no3)CC2)cc1` it was inactive: -7.79%; in that of `O=C(CNC(=O)c1ccccc1)OCc1cc(=O)n2nc(C3CCCCC3)sc2n1`, inactive: 11.9%; in that of `COc1ccc(-c2nc3scc(CCNS(=O)(=O)c4ccc(Oc5ccccc5)cc4)n3n2)cc1OC`, inactive: -3.12%. As for `CCN(CC)C(=O)c1sc2c(c1C)c(=O)n(-c1ccc(C)c(C)c1)c(=O)n2Cc1cc(=O)n2ccccc2n1`, the “activity change, negative = cytotoxicity” value is inactive: 2.01%. Consider `Cc1nc(-c2ccc(S(=O)(=O)Nc3cc(Cl)ccc3C)cc2)co1`, for which the “activity change, negative = cytotoxicity” value was inactive: 13.5%. In the case of `COc1ccc(Cn2cc(S(=O)(=O)c3ccc(C)cc3)c(=O)c3cc(F)ccc32)cc1` it was inactive: 0.352%; in that of `COc1ccc2c(CNCCc3ccc(SC)cc3)c(C(=O)O)n(Cc3ccc(F)cc3)c2c1`, inactive: 4.52%; in that of `COc1ccc2c(c1)c(=O)c(C(=O)c1ccccc1)cn2CC(=O)Nc1ccc2c(c1)OCO2`, inactive: 8.39%. In the case of `COc1ccc(CCNC(=O)c2ccc3c(c2)CCN3S(C)(=O)=O)cc1OC` it was inactive: 5.67%; in that of `NS(=O)(=O)c1ccc(CCNC(=O)C2CCN(c3ncnc4c3nc3n4CCCCC3)CC2)cc1`, inactive: -2.3%; in that of `Cc1ccc(CNC(=O)CCc2cn(C)c3ccccc23)cc1`, inactive: -0.741%. For `CCC(CC)C(=O)Nc1nnc(S(=O)(=O)N2CCCCCC2)s1` the value was inactive: 7.37%; for `CCOc1ccc(NC(=O)c2oc3ccccc3c2NC(=O)COc2cccc(OC)c2)cc1`, inactive: 4.58%. For the molecule `Cc1cccc(CN2C(=O)c3ccccc3Sc3ccc(C(=O)NCc4ccco4)cc32)c1`, the “activity change, negative = cytotoxicity” value is inactive: -4.09%. Take `O=c1c2ccccc2nc(/C=C/c2cccc3ccccc23)n1-c1ccc(F)cc1F`: the “activity change, negative = cytotoxicity” value is inactive: -17.4%. In the case of `COc1ccccc1CNC(=O)C1CCN(c2nc3ccc(C)cc3[nH]2)CC1` it was inactive: 6.48%. Consider `COc1ccc(Cl)cc1-n1cc(-c2ccccc2)nc1SCC(=O)Nc1ccc(C)cc1`, for which the “activity change, negative = cytotoxicity” value was inactive: 5.6%. For `O=C(NC1CCCC1)c1ccc2c(=O)n(Cc3ccccc3)c(SCc3ccccc3F)nc2c1` the value was inactive: 5.06%. In the case of `COc1ccc(-c2cc(-c3ccc(C)cc3)nc3c2COc2ccccc2-3)cc1` it was inactive: 22.2%; in that of `CCC(Cn1nnc2ccccc2c1=O)NC(=O)Nc1ccccc1OC` (stereo not drawn), inactive: -4.13%. For `Cc1ccc(S(=O)(=O)c2nc(-c3ccc(F)cc3)oc2SCC(=O)NC2CCCCC2)cc1` the value was inactive: 8.89%. For `CCOc1ccc(CCNC(=O)c2cc3c(-c4ccccc4F)nn(C)c3s2)cc1`, the “activity change, negative = cytotoxicity” value was inactive: 19.5%. For `CCn1cc(CNC(=O)c2cc(-c3ccc(C)cc3)nc3ccc(Br)cc23)c(C)n1` the value was inactive: 6.22%; for `COc1cccc(NC(=O)C2CCC(CNS(=O)(=O)c3ccc4c(c3)CCCC(=O)N4)CC2)c1` (stereo not drawn), inactive: -11.1%. For `Cc1ccccc1-c1nc2scc(CCNC(=O)c3ccco3)n2n1` the value was inactive: -15.6%; for `COc1cccc(NC(=O)C2CCN(c3ccc(Sc4ccc(C)cc4)nn3)CC2)c1`, inactive: 7.26%. For `CCS(=O)(=O)N1CCc2cc(C(=O)NCc3ccccc3OC)ccc21` the value was inactive: -3.09%; for `CCOc1ccc(CCNC(=O)C2CCCN(S(=O)(=O)N(C)c3ccc(F)cc3)C2)cc1` (stereo not drawn), inactive: -5.06%. Consider `Cc1sc2ncn(CC(=O)N3CCN(c4ccccc4F)CC3)c(=O)c2c1S(=O)(=O)N1CCC(C)CC1`, for which the “activity change, negative = cytotoxicity” value is inactive: -0.54%. For `Cc1cccc(OCCSc2nnc(-c3cccs3)o2)c1` the value was inactive: 5%; for `Cc1ccc2nc(/C(C#N)=C/c3ccccc3F)[nH]c2c1`, inactive: 18%; for `Clc1ccccc1OCCSc1nnc(-c2cccs2)o1`, inactive: 1.23%.

As for `O=C(CSc1nc(=O)n(Cc2ccco2)c2c1CCC2)NCc1ccccc1`, the “activity change, negative = cytotoxicity” value was inactive: 6.01%. Take `CCc1ccc2oc(-c3ccc(C)c(NC(=O)/C=C/c4ccco4)c3)nc2c1`: the “activity change, negative = cytotoxicity” value was inactive: 7.46%. As to `Cc1cc(OCC(=O)NCCc2nc3ccccc3[nH]2)cc(C)c1Cl`, the “activity change, negative = cytotoxicity” value is inactive: 11.8%. In the case of `COc1ccc(CCNC(=O)c2ccc3c(c2)sc2nc(-c4ccccc4)cn23)cc1OC` it was inactive: 3.03%.
